The supplement of paper PMC11417369
The list shows a part of the results.

Test system: PfSIP2 AP2 domain 1 (GST-tagged)
Test: gcPBM binding intensity (ln(normalized median fluorescence intensity)); higher = stronger DNA binding
Procedure, shortened: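 GST-tagged P. falciparum DNA-binding domains, expressed in E. coli (about 25 μg on average), were applied for 1 h to an Agilent 4 × 180k array of primer-extended double-stranded 36-bp intergenic genomic probes plus negative controls. The binding buffer was 1× PBS with 1% milk, 0.2 mg/ml BSA, 0.5% salmon testes DNA and 0.03% Triton X-100. Bound protein was detected with Alexa488 anti-GST antibody and scanned at 488 nm. Binding intensity is the highest Masliner-normalised natural-log median intensity across replicate spots of either probe orientation.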

Sequence | gcPBM binding intensity (ln)
AAAAAAAAAAAAAACACACACACAAAATAAACAAAC [CACACA_site2720] | 7.46
TGATAATTTTTTACATGTACAAGTTTGTTTTTGCAT [XGTACX_site125] | 6.96
TTATCGGTATAATATAGTACATATAGATATATAATA [XGTACX_site1440] | 6.97
ATAATGGAGAAATAAGCATGCATTATATTATAAAAA [TGCATGCA_site325] | 6.58
TAAAAGTTAATATAAACACACAAAAATTAATAAATA [CACACA_site6316] | 6.89
AATTTCTATTTTGTGAGTACATACTCCTATTATATA [XGTACX_site3210] | 7.31
TGAATATTTCTATATACACACATATAAATATAAATA [CACACA_site7593] | 6.84
AAAAAAAAAAAAATGTAATTTTTTAATTATTTATAT [GTGCAC_negctrl_site436] | 6.94
CATATATTTTTGTATAGTACTTTTTTTATTCGTTTT [XGTACX_site1860] | 7.11
TATTTTATCATTTGCACACGCACACCGACATAAAAA [CACACA_site4348] | 7.71
CATCTAAATTGTAGTTGTACACCTTAATCTTATTAC [XGTACX_site7547] | 7.23
ACTCTCTTATATTAAACACACATATTTATAGGTATA [CACACA_site7302] | 7.41
ATTTTAGAATAAATTTTTTACATTAAAAAACTATTT [CACACA_negctrl_site1414] | 6.7
GTATCAAAAGAATACACACACACATACATATATATA [CACACA_site3796] | 7.53
CATACAATAAATATGGTGCATTTTATGTAACCGTTT [GTGCAC_site9420] | 10.4
AAGGATATAACATACACACACACACGGATATAAATA [CACACA_site7867] | 7.06
TGAACATATTAAAATTGTACATATGCACAATATGTA [XGTACX_site6801] | 7.44
TGAAAAATAAATAAATGTACATATATATATATATAC [XGTACX_site7310] | 7.3
AGAAATACAAAATAAATATAAGAAACAAAATATTTA [CACACA_negctrl_site780] | 6.78
AAAAGGTTATCAATATGTACATATTTTTTTATTTTT [XGTACX_site3277] | 6.96
TTTTAATTAAAACACACACACACATATATATATATA [CACACA_site2291] | 9.62
TATTTCATCATATTGTGTACTTAATTTATATAATTA [XGTACX_site5753] | 7.25

Sequence | gcPBM binding intensity (ln)
ATAAAAATATGATCAACACACGATTAAATATTCATA [CACACA_site1495] | 6.75
ATTTATTCATTTGGGTGTACTATTTAAAAAAAACAA [XGTACX_site498] | 7.72
TATTTATATTTTAACACACACATATTTATATTTATA [CACACA_site7324] | 7.02
TATATATAATTTTATACATGCACATATTATATATAT [TGCATGCA_site1036] | 7.87
TATATTTTTTAAACCACACACAATATAGAGTATAAT [CACACA_site4510] | 7.16
TATAAATAAAGACACACACACATATAAATAAATATA [CACACA_site7155] | 7.01
TTTATATACTATTCAAAGTGATAAATAATATATGAA [TGCATGCA_negctrl_site352] | 6.79
AAAAAAAAAAAACATACACACAATAAAATAGGGGTA [CACACA_site2399] | 6.89
ATTTATTTATTAAGATGTACTTATTAAAAATAATAA [XGTACX_site7392] | 7.05
CACATACAGACATACACACACATATAGATTAATATA [CACACA_site6399] | 7.24
TTAGGGTTTTATAAATGTACTTATTTATACATCCTC [XGTACX_site5769] | 6.85
AATAAGAAATGTAAATGTACATAAAAAAAAGTATAT [XGTACX_site3573] | 7.33
TATATATATATATTATGTACATATATATTAAATATG [XGTACX_site2494] | 9.08
ATTTTTTAACATATCATACACACAACCACTTTTTAT [CACACA_site1961] | 7.27
TAAACATTTTTGCACGCACACAAAAAAAAAATAAAA [CACACA_site167] | 7.71
ATTAAATGCAGTTCGGTGCATTAAGGTTATGATGAA [GTGCAC_site9883] | 9.01
CATTCATTTATTAATTGTACTTTTAAGGTTAAATAA [XGTACX_site5838] | 7.02
ATTATATATACACGCACACACACTTATATATATATA [CACACA_site9093] | 9.06
TTTTTAACATATCATACACACAACAACTTTTTATAG [CACACA_site1962] | 7.01
CAAGCCCTTCTGCTTACACACAGTAATTATTGTGTA [CACACA_site2953] | 6.75
TAAAAATATATACATACATGCATACATATATATGTA [TGCATGCA_site774] | 6.92
TAATTTATTATATTTTGTACGTAAAATTATTATTGT [XGTACX_site8155] | 7.43

Sequence | gcPBM binding intensity (ln)
TAGGAAAAGAAAAGCACACACATAAATAAATATATA [CACACA_site504] | 6.87
AATATTTATTTTACATGTACTTATTTTTCTTTTAAC [XGTACX_site3631] | 7
AATATATATTTATATTGTACATATATATATATTTCT [XGTACX_site2603] | 7.06
CCATTAAATACATACACACCCACACCCAAAAAAAAA [CACACA_site4633] | 7.35
AAAAAAAAAAATATAACACACAAAAAATTGTATCGA [CACACA_site1144] | 6.85
ATATAGTAAAATTATACACACATGAATTTTCCCATA [CACACA_site3113] | 6.96
ACAAAATTTACAAAATGTACATATTGTAGATATTGT [XGTACX_site7618] | 6.99
TTAATTAAATATTATACACACAAAAAAATAACTTTA [CACACA_site6197] | 6.9
TGTATTTAAAATGGTTGTACATAAATAAAAATAAAA [XGTACX_site7771] | 7.22
TATTGAAACGTATAGACACACATATGATATATATAT [CACACA_site3226] | 8.62
ATTTATTTATTTATATGTACTTATATATGTATTTTC [XGTACX_site6269] | 7.01
AAAGTGTTAACCTAATCTTTAGTTTTTAAACAATAT [CACACA_negctrl_site841] | 6.76
ATAATATTTTGAAACGGTACACTTTTAAAATACACT [XGTACX_site4423] | 7
AAAATAAGGAAAAAAAAAAAAAAAAAAAAAAAAAAG [CACACA_negctrl_site1291] | 7.14
AAAAAAAAAAAACATACACACAAATATGTACATACA [CACACA_site7807] | 7.12
TATATATTAATATATGCATGTACGATTATTATAATA [TGCATGCA_site446] | 7.23
AATAAAAATCCACAAGCACACAAATGTACTTATATA [CACACA_site8783] | 6.92
TAAATACAAAAATGTACACACATATAAATATTTTTA [CACACA_site7612] | 7
AACACTACATAAAACTGTACAATAGTATTTTATTAT [XGTACX_site996] | 6.83
ACAAGATGATGGAAATGTACATAAAAAGAATCATAT [XGTACX_site8682] | 7.08
TTTTTTTTTATATTTAGTACATATATATTATTATAT [XGTACX_site3334] | 6.97
CTTAGTGTATTTGAATGTACGCATAAATATAATTAT [XGTACX_site2830] | 7.42

Sequence | gcPBM binding intensity (ln)
ATTATTAAAATGATATGTACGCACATAATATACATA [XGTACX_site3236] | 7.06
TTTCAAAAGTAATACTGTACTTATTTTTATGATTTA [XGTACX_site4184] | 6.99
TTATACATAAATTTTGTACACACAAAAAAAAAAAAG [CACACA_site8374] | 7.29
GAATTTTTTTAATGTTGTACTTTTTTTTTTTTTTCT [XGTACX_site648] | 6.87
ACATATATATATATATATATATATATATTACATTTA [CACACA_negctrl_site627] | 7.93
ACATATTTTATTTTTTGTACACATATATTATTTTTT [XGTACX_site6528] | 7.28
TTTTTGTTAAACAGGGTGCTAATCTGAATTAATATT [GTGCAC_site9908] | 9.2
TTTGGTTATATTTAAAAAAGACTAATGAAAATTAAA [XGTACX_negctrl_site526] | 6.77
AAAAAAAAAAAAAATACACACATAAAATAAATAACA [CACACA_site439] | 7.23
AATTTACAAATATAATGTACATAATTATATATATAT [XGTACX_site278] | 8.79
ATATATATATATTACACACACACAAAAAAAATAAAG [CACACA_site118] | 8.64
CATACCATACATAAAACACACAAAATTTACAGAATA [CACACA_site7451] | 7.05
AATAGTAAAAATCACTGTACGTTTATTTTTAAAATG [XGTACX_site1035] | 6.83
CCATATACAACCATACGTACATATATATATATATAT [XGTACX_site8193] | 9.8
ATATTATTTATAGGGTGTACCTTATTATTATAAGAA [XGTACX_site7148] | 6.96
TAGAAAAACATTACGTGTACCAAACATCCTAGCAAC [XGTACX_site4888] | 7.19
TATAATATTATACATAGTACACATCACACATCGCAA [XGTACX_site4650] | 7.13
TATATACTTTTATGTACACACCTATAATATGGGTGA [CACACA_site5044] | 7.05
ATATCTTATGTTATCACACACACACGCACAAAACAG [CACACA_site6800] | 8.31
ATTTTTTTTATTTTTTATATAATTTTTTTATATTAT [CACACA_negctrl_site1521] | 6.92
TGTATTTATAAACATGCACACGTGGTTGTATTTATA [CACACA_site5762] | 7.91
ATTTGTTTACCTAAAAGTACAAATTTTTTATGTATA [XGTACX_site7689] | 6.93
